Laboratory results: article PMC4336329 (PLoS ONE, 2015)
The campaign covered roughly 310,000 compounds. About 14,000 (4.5%) showed an effect of 50% or more. Effects have a minus sign here. Some of the results follow.

Molecular target: human ether-à-go-go-related gene (hERG) potassium channel (human, UniProt Q12809)
Experiment: primary screen, population patch clamp on CHO cells stably expressing hERG
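Note: peak tail current of the secondary pulse compared with the same well before compound.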

human ether-à-go-go-related gene (hERG) potassium channel, sequence (Q12809 whole entry, looked up): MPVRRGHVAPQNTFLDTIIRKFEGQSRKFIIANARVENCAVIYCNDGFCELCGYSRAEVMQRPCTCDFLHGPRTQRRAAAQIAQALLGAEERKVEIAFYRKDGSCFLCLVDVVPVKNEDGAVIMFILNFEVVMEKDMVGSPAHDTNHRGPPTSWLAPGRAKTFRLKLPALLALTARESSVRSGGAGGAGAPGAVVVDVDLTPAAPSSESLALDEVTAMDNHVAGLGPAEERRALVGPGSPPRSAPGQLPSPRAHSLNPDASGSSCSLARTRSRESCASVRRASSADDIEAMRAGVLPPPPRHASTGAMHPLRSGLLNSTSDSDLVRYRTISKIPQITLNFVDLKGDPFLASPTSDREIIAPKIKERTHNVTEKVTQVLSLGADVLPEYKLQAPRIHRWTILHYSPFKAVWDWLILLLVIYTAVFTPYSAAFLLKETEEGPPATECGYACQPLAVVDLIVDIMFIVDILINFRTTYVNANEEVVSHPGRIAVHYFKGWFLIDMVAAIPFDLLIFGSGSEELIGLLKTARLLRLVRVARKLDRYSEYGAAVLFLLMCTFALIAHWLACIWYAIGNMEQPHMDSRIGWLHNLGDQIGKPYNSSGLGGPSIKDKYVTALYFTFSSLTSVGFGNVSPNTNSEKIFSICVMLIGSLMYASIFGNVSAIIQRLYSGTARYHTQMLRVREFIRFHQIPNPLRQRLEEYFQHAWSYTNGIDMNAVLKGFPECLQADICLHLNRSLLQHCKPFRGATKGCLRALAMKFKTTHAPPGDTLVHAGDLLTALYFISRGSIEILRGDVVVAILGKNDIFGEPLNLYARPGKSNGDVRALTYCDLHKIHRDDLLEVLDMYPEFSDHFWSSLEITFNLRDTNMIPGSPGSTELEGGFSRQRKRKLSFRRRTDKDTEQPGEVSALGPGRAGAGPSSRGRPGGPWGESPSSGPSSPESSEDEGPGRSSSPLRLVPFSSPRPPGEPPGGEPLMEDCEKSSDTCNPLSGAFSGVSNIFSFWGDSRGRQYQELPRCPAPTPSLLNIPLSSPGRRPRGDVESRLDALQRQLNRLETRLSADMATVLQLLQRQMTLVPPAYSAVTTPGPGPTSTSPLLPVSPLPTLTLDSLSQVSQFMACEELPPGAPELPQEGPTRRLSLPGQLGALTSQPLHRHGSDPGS

First: O=C(NC(=S)Nc1ccc(O)cc1)c1cncc(Br)c1
Second: O=C(Nc1ccc(Cn2cccn2)cc1)c1ccc(COc2ccccc2Br)cc1
The “hERG current change (%, negative = inhibition) at 10uM” value of the first is lower: -8.75% for the first, 10.4% for the second.

First: CCCN(CC(=O)Nc1ccccc1C)C(=O)/C=C/c1ccc(OCC)c(OC)c1
Second: CC(C)[C@H](NS(=O)(=O)c1ccc2c(c1)OCCO2)C(=O)OCC(=O)Nc1ccccc1Cl
The “hERG current change (%, negative = inhibition) at 10uM” value of the first is lower: -46.7% for the first, -2.82% for the second.

Going from `CC(=O)NS(=O)(=O)c1ccc(NC(=O)NC2CCCCC2)cc1` to `O=C(NC1CC1)c1ccc(S(=O)(=O)NC2CCCCCC2)cc1`, the “hERG current change (%, negative = inhibition) at 10uM” value falls from -4.93% to -8.91%.

First: CCc1nc(SCC(=O)c2cccc([N+](=O)[O-])c2)n[nH]1
Second: C/C(=N\NC(=O)CSCc1ccccc1Br)c1cccc([N+](=O)[O-])c1
The “hERG current change (%, negative = inhibition) at 10uM” value of the first is lower: 3.01% for the first, 15.5% for the second.

Compared with `CCSc1nc2c(c(=O)[nH]1)C(c1ccc(C)cc1)C1=C(CCCC1=O)N2` (stereo not shown), `COc1cccc(-c2nc3sc4c(c3c(=O)[nH]2)CCCCC4)c1` is lower in “hERG current change (%, negative = inhibition) at 10uM” value: 33.2% for the first, 14.8% for the second.

Compared with `O=c1c2ccccc2c(C=NCc2ccccn2)c(O)n1-c1ccccc1`, `CCn1c(=O)cc(SCC(=O)NCc2ccccn2)c2ccccc21` is lower in “hERG current change (%, negative = inhibition) at 10uM” value: 14.2% for the first, -0.329% for the second.

Compared with `Cc1cc(C)n(-c2cc(-n3nc(C)cc3C)ncn2)n1`, `COc1ccnc(Nc2ccc(C)c(C)c2)c1C#N` is lower in “hERG current change (%, negative = inhibition) at 10uM” value: -3.06% for the first, -10.3% for the second.

Compared with `O=C(Nc1cccc(-c2cn3ccccc3n2)c1)c1cccc(Cl)c1`, `Cc1ccc(NC(=O)c2ccc(CN3CCc4ccccc4C3)cc2)cc1` is lower in “hERG current change (%, negative = inhibition) at 10uM” value: 4.75% for the first, 2.91% for the second.

First: CCOC(=O)/C(=C/c1ccc(OC(=O)c2ccncc2)cc1)C(C)=O
Second: CC(=O)c1ccc(OCC(O)CN2CCN(S(=O)(=O)c3c(C)cc(C)cc3C)CC2)cc1.O=C(O)C(=O)O (stereo not shown)
The “hERG current change (%, negative = inhibition) at 10uM” value of the first is lower: -49.6% for the first, -14.6% for the second.

Going from `O=C(CCc1c[nH]c2ccccc12)N1CCN(c2ccc(F)cc2)CC1` to `O=C(c1nc2ccc(Cl)cn2c1CN1CCC(O)CC1)N1CCc2ccccc2C1`, the “hERG current change (%, negative = inhibition) at 10uM” value rises from -39.6% to 7.94%.

First: O=C(/C=C/c1ccccc1Cl)NNC(=O)c1cccs1
Second: CNC(=S)NNC(=O)c1ccccc1Cl
The “hERG current change (%, negative = inhibition) at 10uM” value of the first is higher: 40.6% for the first, 8.64% for the second.

First: COc1ccc(C2NC(c3ccc(OC)cc3)C([N+](=O)[O-])C(C)(C)C2[N+](=O)[O-])cc1 (stereo not shown)
Second: COc1ccc(OC)c(-n2c(-c3ccc(O)cc3O)n[nH]c2=S)c1
The “hERG current change (%, negative = inhibition) at 10uM” value of the first is higher: 41.2% for the first, 17.6% for the second.

Going from `O=C(c1cccc(N2C(=O)C3CC=CCC3C2=O)c1)N1CCCc2ccccc21` (stereo not shown) to `Cc1ccc(C(=O)NNC(=O)c2ccccc2O)cc1S(=O)(=O)N1CCCCC1`, the “hERG current change (%, negative = inhibition) at 10uM” value rises from -19.2% to 5.69%.

Compared with `Cn1c(N)c(C(=O)COC(=O)c2ccc(S(=O)(=O)N3CCCCC3)cc2)c(=O)n(C)c1=O`, `O=C(Cc1ccc(Cl)cc1)Nc1cccc(S(=O)(=O)N2CCCCC2)c1` is lower in “hERG current change (%, negative = inhibition) at 10uM” value: 29.5% for the first, -19.9% for the second.

First: CCn1nc(NS(=O)(=O)c2ccc([N+](=O)[O-])cc2)c2cc3ccccc3nc21
Second: COc1ccccc1N(C)S(=O)(=O)c1ccc(Cl)c(C(=O)NCc2cccnc2)c1
The “hERG current change (%, negative = inhibition) at 10uM” value of the first is higher: 19.3% for the first, -14.9% for the second.

Going from `COC(=O)c1cc(NC(=O)c2cc(-c3ccc(C(F)(F)F)cc3)oc2C(F)(F)F)ccc1N1CCOCC1` to `COc1ccc(C(=O)O)cc1S(=O)(=O)Nc1ccccc1C(=O)NCc1ccc2c(c1)OCO2`, the “hERG current change (%, negative = inhibition) at 10uM” value rises from 7.53% to 13.8%.

Going from `COc1ccc2occ(C(C)=O)c2c1` to `COc1cccc(C(=O)Nc2nnc(C3CCCO3)s2)c1` (stereo not shown), the “hERG current change (%, negative = inhibition) at 10uM” value falls from 1.12% to -2.53%.

Going from `Cc1cc(S(=O)(=O)NC(C)C)ccc1OCC(=O)Nc1ccc2c(c1)OCCO2` to `O=C(O/N=C/c1ccc2c(c1)OCO2)c1ccc([N+](=O)[O-])cc1`, the “hERG current change (%, negative = inhibition) at 10uM” value rises from 15.1% to 22.3%.

Going from `COCc1ccc(O)c2ncccc12` to `COc1ccccc1S(=O)(=O)n1cc(Cc2ccccc2)c(N)n1`, the “hERG current change (%, negative = inhibition) at 10uM” value rises from -11.2% to -8.6%.

Going from `Cn1c(SCc2ccccn2)nc2c1c(=O)[nH]c(=O)n2C` to `CCCCn1c(N)c(N(CCC(C)C)C(=O)c2oc3ccc(OCC)cc3c2C)c(=O)[nH]c1=O`, the “hERG current change (%, negative = inhibition) at 10uM” value falls from 18.8% to -13.9%.

Compared with `O=C(O)c1ccc(-c2noc(-c3ccccc3F)n2)cc1`, `Cc1ccc(CSc2nnc(-c3cccnc3)o2)cc1` is lower in “hERG current change (%, negative = inhibition) at 10uM” value: 21.6% for the first, -10.1% for the second.

Compared with `CC1CN(C(=O)COC(=O)Cc2ccc(Cl)cc2)CC(C)O1` (stereo not shown), `Cc1ccc(CCC(=O)Nc2ncc(Cc3cc(Cl)ccc3Cl)s2)o1` is higher in “hERG current change (%, negative = inhibition) at 10uM” value: -2.2% for the first, 27.7% for the second.

Compared with `O=c1cc(C(F)(F)F)nc(-c2cccnc2)[nH]1`, `COc1ccc(/C=C2/C(=O)ON=C2C)cc1Cl` is higher in “hERG current change (%, negative = inhibition) at 10uM” value: 17.2% for the first, 32.3% for the second.

Compared with `Cc1cccc(C)c1NC(=O)C(c1ccc([N+](=O)[O-])cc1)N1CCCCC1` (stereo not shown), `COc1cccc([C@@H]2Oc3ccc(Br)cc3C(=O)[C@H]2OC(=O)NC2CCCC2)c1` is higher in “hERG current change (%, negative = inhibition) at 10uM” value: 0.685% for the first, 7.49% for the second.

Going from `CC1(OC(=O)C2CCCC2)C(=O)C=C2C=C(c3ccsc3)N(C(CO)CO)C=C2C1=O` (stereo not shown) to `CC(C)CCNC(=O)c1ccc2c(c1)ncn2C1CCCC1`, the “hERG current change (%, negative = inhibition) at 10uM” value falls from -20.1% to -54.8%.

Compared with `CSc1cccc(NC(=S)N(C(C)C)C(C)c2ccccn2)c1` (stereo not shown), `CCOc1ccc(C(=O)Nn2cnnc2)cc1OCC` is lower in “hERG current change (%, negative = inhibition) at 10uM” value: -23.4% for the first, -70.4% for the second.

Compared with `Cc1ccc(-c2cnc(NCc3cc4c(cc3[N+](=O)[O-])OCO4)n2C)cc1C`, `CCOc1cc(-c2noc(CCCC(N)=O)n2)cc(Br)c1OC` is higher in “hERG current change (%, negative = inhibition) at 10uM” value: -48.6% for the first, 2.99% for the second.

For `CCCS(=O)(=O)N1CCC(C(=O)NCC2CCCO2)CC1` (stereo not shown), the “hERG current change (%, negative = inhibition) at 10uM” value was 1.15%.
